Data from PubChem BioAssay AID493208 (National Center for Advancing Translational Sciences (NCATS), 2011).
In all, about 44,000 compounds went through this assay and about 340 (0.77%) were called active. Roughly 5% stayed inconclusive and do not appear here. Calls follow the shape of the dose curve; as a rule, active = well fitted inhibition curve with a large enough effect; inconclusive = small, poorly fitted or top-dose-only effect; inactive = flat fitted curve, though single readings scatter. Some of the results follow.

Experiment: Acumen qHTS Assay for Inhibitors of the mTORC1 Signaling Pathway in MEF (Tsc2-/-, p53-/-) Cells: Sytravon;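 also: plate controls were DMSO for no effect and rapamycin for full effect; nearly all actives have a fitted effect of over 50% in size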
Details: phospho-rpS6 immunofluorescence/PI, 24 h; series mostly up to 38.3 µM; activity change, negative = inhibition: at the top concentration
Method in brief: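 Tsc2-/-, p53-/- mouse embryonic fibroblasts (empty-vector line) exposed to compound 24 hrs at 37 C, fixed, immunostained for phospho-rpS6 and counterstained with propidium iodide. Acumen laser scanning gives % positive cells from Alexa 488/PI ratio, thresholded using 7.5 nM rapamycin; PI count gives viability.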

Activity change, negative = inhibition, inactive:
O=C(Nc1cccc(Cl)c1)c1ccc2nc(CCc3ccccc3)oc2c1 -13.2%
O=c1oc2ccccc2cc1-c1nnc(Nc2ccc(Cl)cc2Cl)s1 0.486%
CCN(CC)CCCNC(=O)Cc1ccc(NC(=O)N2CCCCc3ccccc32)cc1 -3.74%
Cc1nc(-c2ccccc2)sc1-c1ccc(SCC(=O)Nc2cccc(C(F)(F)F)c2)nn1 -3.64%
CCC(=O)N1CCc2cc(Br)cc(S(=O)(=O)N3CCC(C(=O)Nc4ccccc4CC)CC3)c21 0.563%
COc1cccc(C2CC(=O)Nc3cc4c(cc32)OCO4)c1OC(C)C (stereo not given) -21.2%
CC(=O)NC1CC(=O)N(c2ccc3c(c2)OCCO3)C1 (stereo not given) 1.34%
Cc1ccc(-c2nc3cc(Cl)ccc3o2)cc1NC(=O)c1cc([N+](=O)[O-])ccc1N1CCOCC1 -10.4%
COc1cc(OC)c(NC(=O)C2CCN(C(=O)c3sc4nc[nH]c(=O)c4c3C)CC2)cc1Cl -2.24%
CC(C)Oc1ccc(CNC(=O)C2CCN(c3nc4ccccc4nc3C(F)(F)F)CC2)cc1 -1.66%
COCCCNC(=O)c1cnc2c(-c3ccc(F)cc3)c(C)nn2c1C 2.29%
CCOC(=O)C1CCN(C(c2cccc(F)c2)c2c(O)cc(C)n(Cc3ccco3)c2=O)CC1 (stereo not given) -8.57%
O=C(c1ccc(Br)cc1)N1CCN(CCc2ccncc2)CC1 -8.78%
Cn1nc(-c2ccccc2F)c2cc(C(=O)NCCc3ccc(Cl)cc3)sc21 -13.1%
CCOc1cccc(C(=O)N2CCC(c3nc4ccccc4s3)CC2)c1 -11.8%
COc1ccc(-c2noc(N(c3cccc(Cl)c3)c3nc(-c4ccc(OC)c(OC)c4)no3)n2)cc1OC -10.4%
CC(=O)c1ccc(NC(=O)CSc2ccc(-c3cccs3)nn2)cc1 -15.1%
CN(C)c1ccc(CNC(=O)c2cnc3sc(N4CCOCC4)nn3c2=O)cc1 3.4%
Brc1cccc(-c2nnc(CN3CCN(c4ccccn4)CC3)o2)c1 -4.4%
Cc1ccc(S(=O)(=O)Cc2ccc(C(=O)NCCc3ccc(Cl)cc3)o2)cc1 -1.76%
COC(=O)C1=C(C)NC(=O)C1(NC(=O)c1cc(OC)c(OC)c(OC)c1)C(F)(F)F (stereo not given) 3.03%
Cc1cc(C)nc(NC(=NCCc2c[nH]c3ccc(Cl)cc23)NC(=O)c2ccccc2C)n1 -28.3%
Cc1cccc(-n2cc(-c3ccccc3)c3c(NC4CCCC4)ncnc32)c1 -19.5%
C=Cc1ccc(Cn2nc(-c3ccc(C)cc3)ccc2=O)cc1 -14.6%
CCOC(=O)c1cc(C)n(CC2CCC(C(=O)Nc3cccc(C)c3)CC2)c1C (stereo not given) -12%
O=C(NC1CCCCC1)c1ccc(CSc2nc3cccnc3n2Cc2ccc(F)cc2)cc1 0.199%
COc1ccc(OC)c(NC(=O)C2CCN(S(=O)(=O)c3ccc4c(c3)CCCC(=O)N4)CC2)c1 -6.04%
CCOC(=O)c1ccc(NC(=O)CCC(=O)N2Cc3ccccc3Oc3ncccc32)cc1 -1.61%
CCOC(=O)c1c(S(=O)(=O)N2CCCC(C(=O)Nc3cc(C)ccn3)C2)c(C)n(C)c1C (stereo not given) 4.75%
O=C(CN1C(=O)COc2ccc(S(=O)(=O)N3CCCC3)cc21)N1CCN(c2ccc(F)cc2)CC1 -9.98%
O=C1CC(c2nnc(Cc3ccc(F)cc3Cl)o2)CN1c1ccccc1 (stereo not given) -9.59%
O=C1c2[nH]nc(-c3ccccc3O)c2C(c2ccccc2F)N1Cc1cccnc1 (stereo not given) -1.61%
Cc1cccc(-n2c(Cc3ccccc3)nnc2SCc2nc(-c3cccs3)no2)c1 3.7%
Cc1cccc(Nc2nnc(-c3ccc(C)c(S(=O)(=O)NCC4CCCO4)c3)c3ccccc23)c1 (stereo not given) -20.3%
COCCNc1ccc(-c2nc(-c3ccco3)no2)cc1[N+](=O)[O-] -12%
COC(=O)c1ccc(NC(=O)CN2C(=O)CCc3cc(S(=O)(=O)N4CCCCC4)ccc32)cc1 0.148%
COc1ccc(S(=O)(=O)NCC(c2ccco2)N2CCN(c3ccccc3)CC2)cc1OC (stereo not given) -7.1%
O=C(O)CCn1c(=O)c2cccn2c2cccnc21 -0.133%
Cc1[nH]c(=O)[nH]c(=O)c1S(=O)(=O)N1CCN(c2ccccc2Cl)CC1 -0.855%
CCc1ccccc1Nc1nn2c(=O)c3ccc(C(=O)NC(C)c4ccccc4)cc3nc2s1 (stereo not given) -4.18%
CCc1ccc(NC(=O)CC2C(=O)N(c3ccc(Cl)cc3)C(=O)N2Cc2ccco2)cc1 (stereo not given) -7.33%
COc1cc2[nH]c(=O)n(CCCC(=O)NCc3ccc(Cl)cc3)c(=O)c2cc1OC 4.27%
Cc1ccc(NC(=O)C(=O)NCC(c2cccnc2)N2CCN(c3ccccc3F)CC2)cc1Cl (stereo not given) -4.46%
CCOc1cc2[nH]c(=O)n(CCCCC(=O)N3CCN(c4cccc(Cl)c4)CC3)c(=O)c2cc1OCC -1.15%
Cc1cccc2sc(N(Cc3cccnc3)C(=O)c3cccs3)nc12 -2.1%
CCc1ccc(CN2CCc3nc(Nc4ccccc4)ncc3C2)cc1 0%
CC(=O)Nc1ccc(NC(=O)c2cc3sccc3n2Cc2ccc(F)cc2)cc1 -9.15%
CCOC(=O)c1c(C)[nH]c(CCC(=O)NCc2ccc(F)cc2)c1C 12%
Cc1cccc(N2CCN(S(=O)(=O)c3ccc(-c4cc(C(F)(F)F)on4)s3)CC2)c1C 6.08%
Cc1ccccc1OCC(=O)Nc1ccc2nc(SCC(=O)N3CCc4ccccc43)sc2c1 -1.45%
O=C(C1CCCN(S(=O)(=O)c2ccc(Br)s2)C1)N1CCN(c2cccc(Cl)c2)CC1 (stereo not given) -5.3%
COc1cccc(C2C(C(=O)Nc3ccc(Cl)cc3)=C(C)Nc3nc4ccccc4n32)c1 (stereo not given) -4.61%
COc1ccccc1C1Nc2c(sc3nc(C)cc(C)c23)C(=O)N1c1ccccc1 (stereo not given) -0.462%
Cc1ccc(CNc2ncnc3c2cnn3-c2ccc(Cl)cc2)cc1 -0.546%
COc1cccc(CC(=O)Nc2ccc(-c3nc4ccccc4s3)cc2)c1 -0.723%
COc1ccc(Cl)cc1NC(=O)c1nnn(Cc2cccc(C(F)(F)F)c2)c1N -7.44%
COc1ccc2c(c1)c1c(c(=O)n(-c3ccc(C)cc3)c(=O)n1CC(=O)NCc1ccc(C)cc1)n2C -0.939%
COc1ccc(OCC(=O)Nc2cc(-c3nc4ccccc4s3)ccc2C)cc1 9.62%
Cc1cc2c(cc1C)NC(CC(=O)Nc1cccc(Cl)c1)C(=O)N2 (stereo not given) 8.8%
NS(=O)(=O)c1ccc(CCNC(=O)Cn2c(-c3cccs3)cc3ccccc32)cc1 -13.2%
C=CCc1cccc2cc(C(=O)NCCc3c(C)[nH]c4c(C)cccc34)c(=O)oc12 -2.1%
O=C(NCC(c1ccc2c(c1)OCO2)N1CCOCC1)C(=O)Nc1ccccc1 (stereo not given) -5.8%
CCN(CC)c1ccc(NC(=O)CCc2nc3cccnc3n2Cc2cccs2)c(C)c1 0.305%
CNc1ccc(-c2nc(-c3ccco3)no2)cc1[N+](=O)[O-] 0.82%
Cc1ccccc1NC(=O)c1ccc2c(O)c(S(=O)(=O)c3ccccc3)c(=O)[nH]c2c1 -2.15%
CCOC(=O)N1CCC(NC(=O)c2cnn(-c3ccc(F)cc3F)c2C2CCN(C(=O)OC(C)(C)C)CC2)CC1 6.8%
COc1ccc(CCNC(=O)c2c(C)oc3ncnc(N4CCOCC4)c23)c(OC)c1 4.06%
Cc1ccc(S(=O)(=O)Nc2cc3c(cc2C)n(C)c(=O)c(=O)n3C)c(C)c1 -0.856%
Cn1nnnc1SCCCNCc1ccc(-c2ccc(F)c(Cl)c2)o1 -3.74%
CCc1nc(-c2cc(S(=O)(=O)N3CCN(c4ccccc4F)CC3)ccc2OC)no1 0.122%
CCCN1C(C(=O)c2ccccc2)=C(OC(=O)c2ccc(OC)cc2)c2ccccc2S1(=O)=O 1.13%
O=C(Cn1c(=O)c(C(F)(F)F)nc2ccccc21)Nc1cccc(Br)c1 -13.4%
Cc1ccc(CNC(=O)C2CCCN(S(=O)(=O)c3cn(C)cn3)C2)cc1 (stereo not given) 0%
O=C(NCCc1ccccc1)c1ccc(CS(=O)(=O)Cc2ccccc2Cl)o1 3.92%
CCc1ccc(NC(=O)CN2C(=O)CCSc3ccccc32)cc1 -6.36%
Cc1cc(=O)n(CC(=O)NCc2ccc(OC(C)C)cc2)c2c1c(C)nn2-c1cccc(F)c1 4.96%
Cc1cc(C)cc(NS(=O)(=O)c2ccc(N3CCCCS3(=O)=O)cc2)c1 0%
Cc1ccc(NC(=O)C(C)Sc2nc(-c3ccccc3)c(C#N)c(=O)[nH]2)c(C)c1 (stereo not given) 0.507%
O=C(Nc1nnc(S(=O)(=O)N2CCOCC2)s1)c1ccccc1F -15.4%
CC(C)Cc1nn2c(=O)cc(COC(=O)c3ccc(NC(=O)CCc4ccccc4)cc3)nc2s1 2.82%
O=c1c(N2CCc3ccccc3C2)csc2ccc(Cl)cc12 0.473%
CC(C)c1cnc2c(c1SCC(=O)N1CCCCC1)c(=O)n(C)c(=O)n2C 0%
COc1ccc(Nc2c(-c3ccc(N4CCOCC4)cc3)nc3ncccn23)cc1OC -5.84%
CCOc1cc(CN2CCN(S(=O)(=O)c3ccc(C)cc3)CC2)ccc1OC 1.92%
COc1ccc(/C=C/C(=O)Nc2sc(C)c(C)c2C(=O)O)cc1 -0.404%
CCc1ccc2c(c1)NC(c1ccc(C)cc1)=NC(c1cccs1)=N2 -3.13%
CCOC(=O)N1CCc2c(sc3c2c(=O)n(Cc2ccccc2)c(=O)n3CC(=O)Nc2ccc(C)cc2C)C1 -19.3%
CCn1c(=O)sc2cc(NS(=O)(=O)c3ccc(C)cc3)ccc21 -3.84%
CC(=O)Nc1ccc(NC(=O)c2ccc3c(c2)NC(=O)c2ccccc2S3)cc1 -0.825%
CCc1ccccc1N(C)C(=O)c1cn(-c2cccc(OC)c2)c(=O)c2ccccc12 1.6%
O=C(Nc1ccc(F)cc1F)C1CCN(S(=O)(=O)c2ccc3[nH]c(=O)ccc3c2)CC1 -3.1%
CCc1ccc(NC(=O)Cn2nnc(C(=O)NCc3ccc(C)cc3)c2N)cc1 0.786%
COc1cc(NC(=O)CCc2nc3cccnc3n2Cc2cccs2)cc(OC)c1OC 0.744%
CC1(C(=O)NC2CCCCC2)Cc2ccccc2C(=O)N1Cc1ccccc1Cl (stereo not given) -8.95%
CCc1ccc(OCc2nc(-c3ccc(OC)c(OC)c3)no2)c(Br)c1 3.71%
